From PubChem BioAssay AID2551 (National Center for Advancing Translational Sciences (NCATS), 2010)
The campaign covered roughly 310,000 compounds. About 17,000 (5.5%) were called active. Not shown: some 11% with an inconclusive outcome. Calls come from the whole dose curve; as a rule, active = well fitted inhibition curve with a large enough effect; inconclusive = small, poorly fitted or top-dose-only effect, or effect the other way; inactive = no such curve, though single readings can be large or run the other way. The list shows a part of the results, in another mix than the full data. A structure can be active in one record and inactive in another.

Target: Nuclear receptor ROR-gamma (Mus musculus) (UniProt P51450)
Test: qHTS for inhibitors of ROR gamma transcriptional activity; note: nearly all actives have a fitted effect of over 60% in size
Conditions: Drosophila S2 Gal4-RORgamma UAS-luciferase reporter, 20 h; series mostly up to 53.6 µM; activity change, negative = inhibition: at the top concentration
Outline: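 Drosophila Schneider cells stably carrying a metallothionein-driven Gal4 DBD–ROR gamma fusion and a UAS-Photinus luciferase reporter were exposed to compound for 1 hr, then induced with copper sulfate (700 uM final) for 20 hr at ambient temperature before luminescence reading.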
% is set by controls: 0 for no effect and ±100 for the full control effect; potency is the fitted concentration of half-maximal effect.

Chain of UniProt P51450 (P51450 whole entry, looked up): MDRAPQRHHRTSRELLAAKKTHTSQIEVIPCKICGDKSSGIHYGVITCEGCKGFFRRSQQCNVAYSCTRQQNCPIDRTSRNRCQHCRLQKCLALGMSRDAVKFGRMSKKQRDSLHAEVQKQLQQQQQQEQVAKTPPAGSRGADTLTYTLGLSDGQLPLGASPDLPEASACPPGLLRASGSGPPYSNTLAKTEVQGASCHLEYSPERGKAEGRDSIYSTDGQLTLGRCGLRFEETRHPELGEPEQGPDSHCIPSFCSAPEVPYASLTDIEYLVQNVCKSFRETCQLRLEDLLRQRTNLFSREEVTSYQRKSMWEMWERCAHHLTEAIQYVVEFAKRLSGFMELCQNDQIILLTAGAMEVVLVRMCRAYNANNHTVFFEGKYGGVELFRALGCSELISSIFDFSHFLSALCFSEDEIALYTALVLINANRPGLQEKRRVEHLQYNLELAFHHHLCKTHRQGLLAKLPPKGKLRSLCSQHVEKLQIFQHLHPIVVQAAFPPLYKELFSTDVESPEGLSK

Row | Structure (SMILES) | activity change, negative = inhibition | Potency
1 | NC(N)=NC(=O)c1nc(Cl)c(N)nc1N | inactive | –
2 | CCCCCCCCCCCCCC(=O)OC1C(C)[C@@]2(O)C(C=C(CO)C[C@]3(O)C(=O)C(C)=C[C@H]23)[C@@H]2C(C)(C)[C@]12OC(C)=O (stereo partly specified) | inactive: -15.1% | –
3 | CCSc1nnc(C(N)Cc2ccccc2)o1 (stereo unspecified) | inactive: 4.98% | –
4 | O=C(O)c1ccccc1-c1c2cc(Br)c(=O)cc-2oc2[c]([Hg])c(O)c(Br)cc12 | inactive: 5% [at 2.98 µM] | –
5 | OCC1OC(n2cnc3cc(Cl)c(Cl)cc32)C(O)C1O (stereo unspecified) | inactive: -31.4% | –
6 | CC(C)[C@@]1(NC(=O)[C@@H]2C[C@@H]3c4cccc5[nH]cc(c45)C[C@H]3N(C)C2)O[C@@]2(O)[C@@H]3CCCN3C(=O)[C@H](Cc3ccccc3)N2C1=O | inactive: 14.2% | –
7 | CC1(C)C(=O)C=C[C@]2(C)[C@H]3CC[C@@]4(C)[C@H](c5ccoc5)OC(=O)[C@H]5O[C@]54[C@]3(C)[C@H](O)C[C@@H]12 | inactive: -2.49% | –
8 | CC(=O)N1CCN(c2ccc(OC[C@H]3CO[C@](Cn4ccnc4)(c4ccc(Cl)cc4Cl)O3)cc2)CC1 | inactive | –
9 | COP(=S)(OC)Oc1ccc([N+](=O)[O-])cc1 | inactive: 8.08% | –
10 | CCCC/C(C)=C/[C@@H](NP(=O)(c1ccccc1)c1ccccc1)c1ccccc1 | inactive: -1.79% | –
11 | COC1=CC(=O)OC(/C=C/c2ccccc2)C1 (stereo unspecified) | inactive: -18.7% | –
12 | O=C(NC(=O)c1c(F)cccc1F)Nc1cc(Cl)c(OC(F)(F)C(F)C(F)(F)F)cc1Cl (stereo unspecified) | inactive: -25.3% | –
13 | Fc1ccc(C(OCCN2CCN(CCCc3ccccc3)CC2)c2ccc(F)cc2)cc1 | inactive: 3.56% [at 16.9 µM] | –
14 | Oc1ccc2c3c1O[C@H]1c4[nH]c5ccccc5c4C[C@@]4(O)C(C2)N(CC2CC2)CC[C@]314 | inactive: 6.28% | –
15 | CN1CC[C@@]2(C)c3cc(O)ccc3N(C)[C@@H]12 | inactive: -42.4% | –
16 | O=C1NC(=O)N(CCC2=CCCCC2)C(=O)/C1=C/c1cccs1 | inactive: 29.8% | –
17 | CNC(=O)[C@H]1C[C@@H]1[C@H](NP(=O)(c1ccccc1)c1ccccc1)c1ccccc1 | inactive: -2.38% | –
18 | C=C(C)[C@@H]1CC[C@]2(C(=O)O)CC[C@]3(C)[C@H](CC[C@@H]4[C@@]5(C)CC[C@H](O)C(C)(C)[C@@H]5CC[C@]43C)[C@@H]12 | inactive: -20.6% | –
19 | C=C1C(=O)O[C@@H]2C[C@@H](C)[C@@H]3C=CC(=O)[C@@]3(C)[C@@H](OC(=O)CC(=O)O[C@H]3[C@@H]4C(=C)C(=O)O[C@@H]4C[C@@H](C)[C@@H]4C=CC(=O)[C@]43C)[C@H]12 | – | active: 1120 nM
20 | CC(C)=CCCC1(C)C=Cc2c(O)c3c(c(CC=C(C)C)c2O1)OC12C(=CC4CC1C(C)(C)OC2(C/C=C(/C)C(=O)O)C4O)C3=O (stereo unspecified) | – | active: 2820 nM
21 | O=c1ccc2cc(O[C@@H]3O[C@@H](CO)[C@H](O)[C@@H](O)[C@@H]3O)c(O)cc2o1 | inactive: -15.5% | –
